Assay results reported in article PMC4705382.
These are yes or no findings as the source states them, for the method shown. In cells and extracts the contact can be indirect. Some binding calls cover weakened binding; strength is not graded here. Tags and fused reporters may be left off the sequences shown.

Target: T1, ^mycTRAK2-(1–700) (UniProt Q8R2H7)
T1 sequence: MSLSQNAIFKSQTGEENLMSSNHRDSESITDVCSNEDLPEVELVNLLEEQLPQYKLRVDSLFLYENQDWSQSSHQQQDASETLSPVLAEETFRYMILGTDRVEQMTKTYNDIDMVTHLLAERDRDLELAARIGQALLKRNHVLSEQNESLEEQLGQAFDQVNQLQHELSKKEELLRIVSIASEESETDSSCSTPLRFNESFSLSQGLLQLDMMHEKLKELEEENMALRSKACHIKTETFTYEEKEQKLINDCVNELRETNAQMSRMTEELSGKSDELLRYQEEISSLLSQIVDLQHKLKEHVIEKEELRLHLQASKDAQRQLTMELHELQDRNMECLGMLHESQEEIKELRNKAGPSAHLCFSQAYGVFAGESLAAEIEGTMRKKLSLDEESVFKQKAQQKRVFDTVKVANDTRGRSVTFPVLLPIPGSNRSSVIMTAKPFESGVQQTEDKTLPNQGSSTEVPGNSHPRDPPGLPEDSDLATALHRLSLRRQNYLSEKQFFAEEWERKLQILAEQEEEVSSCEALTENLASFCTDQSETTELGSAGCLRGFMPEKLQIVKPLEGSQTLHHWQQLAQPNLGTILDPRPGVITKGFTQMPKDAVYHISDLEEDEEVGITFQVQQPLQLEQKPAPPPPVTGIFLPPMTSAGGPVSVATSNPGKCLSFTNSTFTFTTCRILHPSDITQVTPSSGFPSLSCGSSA
Assay: co-IP; rabbit anti-Myc beads (Sigma) on lysates of co-transfected COS7 cells; lysis buffer 50 mM HEPES pH 7.5, 0.5% Triton X-100, 150 mM NaCl, 1 mM EDTA; Western blot

B1: Untagged human DISC1 (protein, UniProt Q9NRI5 1-854)
chain: MPGGGPQGAPAAAGGGGVSHRAGSRDCLPPAACFRRRRLARRPGYMRSSTGPGIGFLSPAVGTLFRFPGGVSGEESHHSESRARQCGLDSRGLLVRSPVSKSAAAPTVTSVRGTSAHFGIQLRGGTRLPDRLSWPCGPGSAGWQQEFAAMDSSETLDASWEAACSDGARRVRAAGSLPSAELSSNSCSPGCGPEVPPTPPGSHSAFTSSFSFIRLSLGSAGERGEAEGCPPSREAESHCQSPQEMGAKAASLDGPHEDPRCLSRPFSLLATRVSADLAQAARNSSRPERDMHSLPDMDPGSSSSLDPSLAGCGGDGSSGSGDAHSWDTLLRKWEPVLRDCLLRNRRQMEVISLRLKLQKLQEDAVENDDYDKAETLQQRLEDLEQEKISLHFQLPSRQPALSSFLGHLAAQVQAALRRGATQQASGDDTHTPLRMEPRLLEPTAQDSLHVSITRRDWLLQEKQQLQKEIEALQARMFVLEAKDQQLRREIEEQEQQLQWQGCDLTPLVGQLSLGQLQEVSKALQDTLASAGQIPFHAEPPETIRSLQERIKSLNLSLKEITTKVCMSEKFCSTLRKKVNDIETQLPALLEAKMHAISGNHFWTAKDLTEEIRSLTSEREGLEGLLSKLLVLSSRNVKKLGSVKEDYNRLRREVEHQETAYETSVKENTMKYMETLKNKLCSCKCPLLGKVWEADLEACRLLIQSLQLQEARGSLSVEDERQMDDLEGAAPPIPPRLHSEDKRKTPLKVLEEWKTHLIPSLHCAGGEQKEESYILSAELGEKCEDIGKKLLYLEDQLHTAIHSHDEDLIQSLRRELQMVKETLQAMILQLQPAKEAGEREAAASCMTAGVHEAQA
  binding: binds
